PubChem BioAssay AID504333 (National Center for Advancing Translational Sciences (NCATS), 2011)
The campaign covered roughly 360,000 compounds. About 16,000 (4.4%) were called active. Inconclusive results, whose numbers are uncertain, are shown with a selection of clear calls. Calls come from the whole dose curve; as a rule, active = well fitted inhibition curve with a large enough effect; inconclusive = small, poorly fitted or top-dose-only effect; inactive = no such curve, though single readings can be large or run the other way. Potencies of inconclusive entries are doubtful fits and often do not repeat.

target: Bromodomain adjacent to zinc finger domain protein 2B (Homo sapiens) (UniProt Q9UIF8); assay: qHTS Assay for Inhibitors of BAZ2B; settings: AlphaScreen BAZ2B-H3K14Ac peptide displacement; series mostly up to 114 µM; note: nearly all actives have a fitted effect of over 60% in size
Sequence of UniProt Q9UIF8 (Q9UIF8 whole entry, looked up, the tested form may be a part): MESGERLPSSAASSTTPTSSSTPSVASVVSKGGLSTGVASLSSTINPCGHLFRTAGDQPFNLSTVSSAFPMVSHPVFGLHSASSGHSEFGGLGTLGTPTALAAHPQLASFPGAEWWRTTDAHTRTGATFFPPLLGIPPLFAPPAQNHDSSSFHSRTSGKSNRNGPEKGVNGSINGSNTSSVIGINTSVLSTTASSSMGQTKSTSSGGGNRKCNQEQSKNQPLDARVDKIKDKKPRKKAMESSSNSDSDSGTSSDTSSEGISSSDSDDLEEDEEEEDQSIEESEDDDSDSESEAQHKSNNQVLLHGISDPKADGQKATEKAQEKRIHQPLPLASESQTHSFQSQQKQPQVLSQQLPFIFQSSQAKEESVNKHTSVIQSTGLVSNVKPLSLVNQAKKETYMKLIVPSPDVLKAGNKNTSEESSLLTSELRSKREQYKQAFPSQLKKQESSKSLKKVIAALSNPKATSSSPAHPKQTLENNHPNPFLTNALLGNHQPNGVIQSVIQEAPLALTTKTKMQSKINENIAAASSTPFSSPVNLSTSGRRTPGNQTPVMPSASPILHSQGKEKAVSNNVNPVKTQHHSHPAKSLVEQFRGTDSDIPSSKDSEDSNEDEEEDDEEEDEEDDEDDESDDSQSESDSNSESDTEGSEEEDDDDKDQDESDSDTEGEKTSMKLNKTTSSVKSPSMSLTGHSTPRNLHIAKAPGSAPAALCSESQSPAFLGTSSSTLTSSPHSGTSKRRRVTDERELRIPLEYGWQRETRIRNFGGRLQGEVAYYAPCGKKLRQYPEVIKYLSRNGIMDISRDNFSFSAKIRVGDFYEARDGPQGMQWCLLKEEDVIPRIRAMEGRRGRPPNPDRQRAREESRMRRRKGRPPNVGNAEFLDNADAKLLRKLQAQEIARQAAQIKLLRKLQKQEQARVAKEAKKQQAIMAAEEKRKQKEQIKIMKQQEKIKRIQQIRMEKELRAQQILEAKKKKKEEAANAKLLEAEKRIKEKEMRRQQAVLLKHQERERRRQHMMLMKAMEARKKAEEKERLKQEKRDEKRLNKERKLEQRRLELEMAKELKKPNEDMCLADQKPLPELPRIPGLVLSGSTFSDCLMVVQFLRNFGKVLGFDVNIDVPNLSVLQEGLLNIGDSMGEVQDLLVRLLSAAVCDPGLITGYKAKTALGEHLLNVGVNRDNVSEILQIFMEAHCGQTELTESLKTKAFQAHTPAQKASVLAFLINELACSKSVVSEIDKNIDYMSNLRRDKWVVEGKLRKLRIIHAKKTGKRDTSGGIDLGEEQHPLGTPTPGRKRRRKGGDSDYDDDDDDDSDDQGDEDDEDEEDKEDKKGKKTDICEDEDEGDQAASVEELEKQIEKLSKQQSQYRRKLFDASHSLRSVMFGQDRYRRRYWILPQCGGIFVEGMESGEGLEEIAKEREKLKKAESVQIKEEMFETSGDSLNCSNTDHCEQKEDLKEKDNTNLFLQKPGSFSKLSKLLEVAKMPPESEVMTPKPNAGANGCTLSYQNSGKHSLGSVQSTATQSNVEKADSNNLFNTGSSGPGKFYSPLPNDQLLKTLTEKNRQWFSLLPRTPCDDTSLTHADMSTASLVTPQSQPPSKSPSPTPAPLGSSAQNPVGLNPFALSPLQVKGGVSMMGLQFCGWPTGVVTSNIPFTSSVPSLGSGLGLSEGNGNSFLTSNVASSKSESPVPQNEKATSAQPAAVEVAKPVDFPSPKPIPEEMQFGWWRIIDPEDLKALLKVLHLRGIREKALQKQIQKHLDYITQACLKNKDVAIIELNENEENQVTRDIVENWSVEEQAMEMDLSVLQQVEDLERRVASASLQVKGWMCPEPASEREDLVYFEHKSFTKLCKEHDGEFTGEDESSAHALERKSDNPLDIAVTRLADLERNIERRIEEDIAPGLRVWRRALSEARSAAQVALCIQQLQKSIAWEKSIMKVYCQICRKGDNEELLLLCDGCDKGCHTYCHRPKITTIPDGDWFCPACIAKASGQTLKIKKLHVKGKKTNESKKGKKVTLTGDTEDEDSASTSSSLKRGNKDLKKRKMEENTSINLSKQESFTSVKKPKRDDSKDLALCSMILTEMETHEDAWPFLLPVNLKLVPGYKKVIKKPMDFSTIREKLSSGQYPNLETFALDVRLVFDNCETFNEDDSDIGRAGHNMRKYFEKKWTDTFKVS
How it was run: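 AlphaScreen displacement of biotin-H3(5-23)K14Ac peptide (50 nM final) from BAZ2B (50 nM final) in PBS pH 7.4, 0.01% Tween-20; complex preformed 30 min RT, then compounds (top 110 uM) 30 min RT, beads 20 min dark.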
Potency is the fitted concentration of half-maximal effect; tags give direction and shape of the fitted curve.

SMILES	Potency
Cc1c(C)n(C(=O)CSc2nccn2C)c2ccccc12	inconclusive: 50.1 µM [inhibitor, partial curve]
Cc1ccc(/C=C/C(=O)OCC(=O)N2CC(=O)Nc3ccccc32)o1	inconclusive: 89.1 µM [inhibitor, single point]
CCOc1ccc(C2C(C(=O)c3ccco3)=C(O)C(=O)N2CCCn2ccnc2)cc1OCC (stereo unspecified)	inconclusive: 89.1 µM [inhibitor, single point]
COc1ccccc1Nc1ccc(S(=O)(=O)N2CCCCC2)cc1[N+](=O)[O-]	active: 8.91 µM
Cn1[nH]c(C(F)(F)F)c(C=Nc2ccc(Cl)cc2)c1=O	inconclusive: 89.1 µM [inhibitor, single point]
CN(C)c1ccc(/C=C2\N=C(C(C)(C)C)OC2=O)cc1	inconclusive: 50.1 µM [inhibitor, partial curve]
O=C1C(Nc2ccccc2)=CC(c2ccc(O)cc2)N1c1ccccc1 (stereo unspecified)	inconclusive: 89.1 µM [inhibitor, single point]
O=C(CCC(=O)OCc1ccc(C(=O)Oc2ccc(Cl)cc2)cc1)Nc1ccccc1	inactive
C=CCn1c(SCC(=O)c2ccc(F)cc2)nnc1-c1ccc2c(c1)OCO2	inactive
O=C(CSc1ccccc1)NCc1ccc2c(c1)CCN2C(=O)c1ccc(F)cc1	inactive
CC1=C(C(=O)NCc2ccccc2)C(c2cccs2)NC(=S)N1 (stereo unspecified)	inactive
COc1ccc2sc(N(CCN(C)C)C(=O)c3ccc4ccccc4c3)nc2c1	inconclusive: 44.7 µM [inhibitor, partial curve]
Cc1ccc(S(=O)(=O)N(CC(=O)O)Cc2ccco2)cc1	active: 56.2 µM
CC(=O)Nc1n[nH]c(S(=O)(=O)Cc2ccc(Cl)cc2Cl)n1	inconclusive: 89.1 µM [inhibitor, single point]
COc1ccc(N2CCN(CCCNC(=O)CCCn3c(=O)[nH]c4ccsc4c3=O)CC2)cc1	inconclusive: 89.1 µM [inhibitor, single point]
CCOc1ccc(Nc2ccc(C(=O)O)cc2[N+](=O)[O-])cc1	inconclusive: 50.1 µM [inhibitor, partial curve]
CCCN(CCC)S(=O)(=O)c1ccc(Cl)c([N+](=O)[O-])c1	inconclusive: 28.2 µM [inhibitor, full curve]
CCCCC(NC(=O)Cc1c(C)c2cc3c(-c4ccccc4)coc3c(C)c2oc1=O)C(=O)O (stereo unspecified)	inconclusive: 79.4 µM [inhibitor, single point]
O=C1CCN(CCc2ccccc2)CCN1[C@H](CSc1ccc(Br)cc1)c1ccccc1	inconclusive: 35.5 µM [inhibitor, partial curve]
COc1ccc(S(=O)(=O)N2CCN(Cc3ccc4c(c3)OCO4)CC2)cc1OC	inconclusive: 79.4 µM [inhibitor, single point]
NC(=O)c1ccc(N2CCCCC2)c(N2C(=O)C3CC=CCC3C2=O)c1 (stereo unspecified)	active: 50.1 µM
CC(C)NS(=O)(=O)c1ccc(CCC(=O)N2CCCCC2)cc1	inactive
COc1ccccc1N1CCN(CC(O)COc2ccc(C)c(C)c2)CC1 (stereo unspecified)	inconclusive: 79.4 µM [inhibitor, single point]

SMILES	Potency
Cc1nn(-c2ccccc2)c(C)c1/C=N/Nc1nc2ccccc2[nH]1	inconclusive: 79.4 µM [inhibitor, single point]
CC(/C=C/c1ccco1)=N\NC(=O)CNc1cccc(C)c1	inconclusive: 50.1 µM [inhibitor, partial curve]
CCOC(=O)C1=C(c2ccccc2)N=c2s/c(=C\c3cccc(O)c3)c(=O)n2C1c1cccs1 (stereo unspecified)	inconclusive: 39.8 µM [inhibitor, partial curve]
O=C(CSc1nc(-c2ccccc2)[nH]c1-c1ccccc1)Nc1ccc2c(c1)OCCO2	inconclusive: 28.2 µM [inhibitor, partial curve]
COc1ccc(CCNC(=O)c2ccc3c(c2)NC(=O)C(C(C)C)N3)cc1OC (stereo unspecified)	inactive
CN(C)c1ccc(C=NC(CO)C(O)c2ccc([N+](=O)[O-])cc2)cc1 (stereo unspecified)	inactive
Cc1ccnc(NC(c2ccccc2O)c2oc(CO)cc(=O)c2O)c1 (stereo unspecified)	inconclusive: 79.4 µM [inhibitor, single point]
CC(=O)c1ccc(NC(=O)COC(=O)c2c[nH]c3ccccc23)cc1	inactive
O=C(CN1CCCCC1)N1CCc2ccccc21	inactive
CCOC(=O)c1c(C)oc2c1c1c(c3ccccc32)OCN(CCCC(=O)O)C1	inconclusive: 44.7 µM [inhibitor, partial curve]
Cc1c(C(=O)NCCC2=CCCCC2)oc2ccc(S(=O)(=O)N3CCC4(CC3)OCCO4)cc12	inactive
Cc1nc2cc(N)ccc2n1C1CCCCC1	inconclusive: 79.4 µM [inhibitor, single point]
COC(=O)Cc1[nH]n(-c2nc3ccccc3s2)c(=O)c1C(C)=Nc1ccc(Cl)cc1	active: 25.1 µM
COc1ccc(C(=O)NC(=S)N2CC(C)OC(C)C2)cc1 (stereo unspecified)	inactive
CC(=O)c1ccccc1OCCCCN1CCCCC1	inconclusive: 89.1 µM [inhibitor, single point]
COc1cccc(OC)c1OCC(C)CNCC1CCCO1 (stereo unspecified)	inconclusive: 79.4 µM [inhibitor, single point]
O=C(NC1CCN(C(=S)Nc2ccc(F)cc2)CC1)C1CCCCC1	inactive
CC(=O)N=c1sc2nc3ccccc3nc2n1N(C(C)=O)C(C)=O	active: 50.1 µM
O=[N+]([O-])c1cccc(-c2ccc(CN3CCN(c4ccccc4)CC3)o2)c1	active: 44.7 µM
Cc1cc(/C=N/n2cnnc2)c(C)n1-c1ccc2c(c1)OCO2	inconclusive: 89.1 µM [inhibitor, single point]
CC(C)=NNc1nc(-c2ccccc2)cs1	inactive
CC(=O)N1N=C(c2ccc([N+](=O)[O-])cc2)CC1c1ccccc1Cl (stereo unspecified)	inconclusive: 39.8 µM [inhibitor, partial curve]
CC1=C/C(=C(/c2cc(C)c(O)c(Br)c2)c2ccccc2S(=O)(=O)O)C=C(Br)C1=O	active: 17.8 µM
